Results as given in PubChem BioAssay AID588855 (National Center for Advancing Translational Sciences (NCATS), 2011).
The campaign covered roughly 410,000 compounds. About 5,000 (1.2%) were called active. Inconclusive means that the source gave no clear call. Such entries were picked first, then a sample of the others. The call rests on the fitted dose curve; in most records, active means well fitted inhibition curve with a large enough effect; inconclusive means small, poorly fitted or top-dose-only effect; inactive means no such curve, though single readings can be large or run the other way. Potencies beside an inconclusive call are fits to weak or partial responses and may not hold up.

Test: qHTS for Inhibitors of TGF-b; further: nearly all actives have a fitted effect of over 65% in size
Details: HepG2 CAGA-GFP TGF-b/SMAD3 reporter, GFP fluorescence, 18 h, TGF-beta stimulated, 500 pg/mL final; series mostly up to 46.1 µM; activity, negative = inhibition: at the top concentration
In short: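 HEPG2 CAGA-GFP cells (1000/well, DMEM with 1% FBS) were pre-incubated 2 h at 37 degrees C, given compound by pin tool, then stimulated with TGF-beta at 500 pg/mL final for 18 h before per-cell GFP fluorescence imaging.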
On the % scale 0 is the no-effect control and ±100 the full control effect; potency means the concentration at half of the fitted maximal effect; tags describe the fitted curve by direction and shape.

Structure (SMILES)	Potency	activity, negative = inhibition
COc1ccccc1Cc1c(-c2ccc(OC)c(OC)c2)nc2ccc(Br)cn12	inconclusive: 17.8 µM [inhibitor, single point]	–
O=C(N/N=C/c1cccs1)c1n[nH]c2c1CCC2	–	inactive: -29.5%
O=C(/C=C/c1cn(CC(O)CN2CCCCCC2)c2ccccc12)c1ccc(Br)cc1 (stereo not given)	inconclusive: 22.4 µM [inhibitor, single point]	–
C=CCOC(=O)C1=C(C)NC(C)=C(C(=O)OCC=C)C1c1cccs1	inconclusive: 35.5 µM [inhibitor, single point]	–
C=CCC(CC=C)(CNC(=O)C(=O)Nc1ccc(C(=O)OCC)cc1)c1ccccc1	inconclusive: 2.82 µM [inhibitor, partial curve, poor fit]	–
O=c1oc2cc(O)ccc2cc1-c1ccc(F)cc1	inconclusive: 35.5 µM [inhibitor, single point]	–
O=C(O)CCC(=O)NCCn1c(-c2ccccc2)csc1=Nc1ccccc1	inactive	–
COc1ccc(S(=O)(=O)N2CCCCCC2)cc1NC(=O)c1c2c(nc3ccccc13)CCN(Cc1ccccc1)C2	inconclusive: 3.16 µM [inhibitor, partial curve, poor fit]	–
Cc1ccc(-c2nc3ccccn3c2Nc2ccc3c(c2)OCO3)o1	inconclusive: 35.5 µM [inhibitor, single point]	–
CC(=O)c1cccc(NS(=O)(=O)c2ccc(N/C=C/C(=O)c3ccc(F)cc3)cc2)c1	inconclusive: 7.94 µM [inhibitor, partial curve, poor fit]	–
O=C(Nc1c(F)cccc1F)c1ccc(-n2cncn2)nc1	inconclusive: 25.1 µM [inhibitor, single point]	–
Cc1ccc(OCc2cc(C(=O)N(C)CCc3nc4ccccc4[nH]3)no2)cc1C	inconclusive: 25.1 µM [inhibitor, single point]	–
CCOC(=O)c1scc(-c2ccccc2)c1S(=O)(=O)N1CCN(c2ccccc2OC)CC1	inconclusive: 10 µM [inhibitor, partial curve]	–
COc1ccc(SC[C@H](Cc2ccccc2)N2CC[C@@H](C(C)(C)C)CCC2=O)cc1	inconclusive: 10 µM [inhibitor, partial curve, poor fit]	–
CCOc1ccc2nc(NC(=O)CN3CCC(n4nnc5cc(F)ccc54)CC3)sc2c1	inconclusive: 35.5 µM [inhibitor, single point]	–
CCOC(=O)N1CCN(C(=O)c2ccccc2N(Cc2ccccc2)S(=O)(=O)c2ccc(OC)cc2)CC1	inconclusive: 0.794 µM [inhibitor, full curve, poor fit]	–
Cc1ccc(CNC(=O)c2cccc(-n3cnc4cccnc43)c2)cc1	inconclusive: 20 µM [inhibitor, single point]	–
COc1cccc(C(=O)Nc2c3c(nn2-c2ccc(Cl)cc2)CS(=O)(=O)C3)c1	–	inactive: 15.5%
N=c1c2c(n(Cc3ccc(Cl)cc3)c3c1CCC3)CCC2	inconclusive: 20 µM [inhibitor, single point]	–
CCCCNc1nc2c(c(=O)n(Cc3ccc(Cl)c(Cl)c3)c(=O)n2C)n1C	inconclusive: 35.5 µM [inhibitor, single point]	–

Structure (SMILES)	Potency	activity, negative = inhibition
CC/C=C1/N=C2C(=O)N(C)C(=O)N=C2N(C)N1	inconclusive: 12.6 µM [inhibitor, partial curve, poor fit]	–
COc1ccc(-c2csc(N(CCCN(C)C)C(=O)c3ccc(C(C)(C)C)cc3)n2)cc1	inconclusive: 35.5 µM [inhibitor, single point]	–
CC(C)(C)c1ccc(C(=O)NCC(=O)OCC(=O)N2CCN(S(=O)(=O)c3ccc(Cl)cc3)CC2)cc1	inconclusive: 14.1 µM [inhibitor, partial curve]	–
COc1ccc(NC(=O)c2cc(S(=O)(=O)N3CCCC3)c[nH]2)cc1	inconclusive: 3.55 µM [inhibitor, partial curve, poor fit]	–
C=C1c2ccccc2S(=O)(=O)N(Cc2ccccc2)C1COCc1ccccc1 (stereo not given)	inconclusive: 17.8 µM [inhibitor, single point]	–
O=C(Cc1ccccc1)Nc1ccc(NC(=O)c2ccco2)nc1	–	inactive: 1.29%
Cc1ccc(CNC(=O)CSc2nc3n[nH]c(C)c3c(=N)n2-c2cccc(C)c2)cc1	inconclusive: 1.41 µM [inhibitor, partial curve]	–
C/C(N=Nc1nc2ccccc2s1)=N\Nc1ccccc1O	active: 11.2 µM	–
CCN1CCN(c2ccc(NC(=O)CCc3c(C)nc4c(-c5ccccc5)c(C)nn4c3C)cc2)CC1	inconclusive: 6.31 µM [inhibitor, single point]	–
COc1ccc(N(CC(=O)N2CCN(c3ccc(F)cc3)CC2)S(=O)(=O)c2c(C)n[nH]c2C)cc1	inconclusive: 35.5 µM [inhibitor, single point]	–
CC(C)(C)c1cc(/C=N/O)cc(C(C)(C)C)c1O	–	inactive: -6.03%
CN(C)C=Nc1ccc([N+](=O)[O-])c2ccccc12	–	inactive: 1.47%
COc1ccc(/C=C/C(=O)Nc2ccc3nc(N4CCCCC4)cc(C)c3c2)cc1OC	active: 12.6 µM	–
COc1ccccc1Nc1ccc(N)cc1	inconclusive: 22.4 µM [inhibitor, partial curve, poor fit]	–
Cc1ccc(S(=O)(=O)N(CC(=O)Nc2ccc3c(c2)OCO3)c2ccc(C)c(Cl)c2)cc1	inconclusive: 6.31 µM [inhibitor, single point]	–
CCOC(=O)c1ccc(NC(=O)c2nn(CC)cc2Br)cc1	inconclusive: 0.224 µM [inhibitor, full curve, poor fit]	–
COc1cc(NC(=S)NCc2cccs2)cc(OC)c1	inconclusive: 35.5 µM [inhibitor, single point]	–
N#CC(c1ccc(F)cc1)c1ccc(C(=O)c2ccc(F)cc2)cc1 (stereo not given)	–	inactive: -17.6%
Cc1nc(C(=O)Nc2cccc(Cl)c2Cl)nn1-c1cc(OC(C)C)c(Cl)cc1Cl	inconclusive: 12.6 µM [inhibitor, partial curve, poor fit]	–
Cc1ccc(N=Nc2c(N)n(-c3ccccc3)[nH]c2=O)cc1	inconclusive: 3.16 µM [inhibitor, single point]	–
